This note sets out measurements from PubChem BioAssay AID360 (National Center for Advancing Translational Sciences (NCATS), 2006).

The campaign covered roughly 48,000 compounds. About 550 (1.1%) were called active. Another 4% or so got no clear call; they are omitted. No stated cut-off is given here; in the data, active means potency below about 15 µM; inconclusive means mostly about 16 µM to 33 µM; inactive means weaker than that. This is one part of the list.
Potency means the concentration at half of the fitted maximal effect.

The target of this test is Lysosomal acid glucosylceramidase (Homo sapiens) (UniProt P04062). In words: Glucocerebrosidase.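 Further: the screen sought inhibitors.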 The following applies: purified enzyme, resorufin glucoside fluorescence (screen aimed at inhibitors), 20 min. Summed up: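 Compounds titrated against 0.2 nM normal enzyme, 30 uM resorufin beta-D-glucopyranoside substrate, citrate/phosphate buffer with taurocholate and tween-20, pH 5.9. Reaction ran 20 min at room temperature; fluorescence (Ex 548/Em 600) gave AC50.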
Sequence of UniProt P04062 (P04062 whole entry, looked up): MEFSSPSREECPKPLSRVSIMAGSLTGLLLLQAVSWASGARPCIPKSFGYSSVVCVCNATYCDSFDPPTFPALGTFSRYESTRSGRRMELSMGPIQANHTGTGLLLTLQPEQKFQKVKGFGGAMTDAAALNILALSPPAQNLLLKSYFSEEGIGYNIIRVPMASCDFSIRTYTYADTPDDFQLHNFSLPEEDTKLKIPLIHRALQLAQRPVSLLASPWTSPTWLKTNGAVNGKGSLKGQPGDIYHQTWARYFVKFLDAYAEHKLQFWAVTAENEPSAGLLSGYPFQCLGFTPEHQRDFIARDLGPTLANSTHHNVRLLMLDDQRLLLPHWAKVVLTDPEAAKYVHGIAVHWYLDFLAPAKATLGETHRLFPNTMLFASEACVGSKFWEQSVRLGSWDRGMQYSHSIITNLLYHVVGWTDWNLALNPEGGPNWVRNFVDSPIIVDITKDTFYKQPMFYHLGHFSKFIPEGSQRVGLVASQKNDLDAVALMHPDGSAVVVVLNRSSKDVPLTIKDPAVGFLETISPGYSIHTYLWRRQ
Turning to `Cc1sc(NC(=O)CSc2nnc(COc3ccc(Cl)cc3)n2C)c(C#N)c1C`, the Potency was inactive: > 76.9 µM.
As for `N#CC1=C(N)Oc2c(oc(CO)cc2=O)C1c1ccsc1` (stereo not given), the figure is inactive: > 76.9 µM; as for `O=C(CCN1C(=O)C2C3C=CC(C3)C2C1=O)Nc1c(F)cccc1F` (stereo not given), inactive: > 76.9 µM.
As for `O=C(NCc1csc(-c2ccccc2)n1)c1ccco1`, the figure is inactive: > 76.9 µM; as for `Cc1ccc(-c2cc(C(=O)N3CCOCC3)c3ccccc3n2)cc1`, inactive: > 76.9 µM.
`Cc1nn(-c2ccccc2)c2[nH]c(C(F)(F)F)cc(=O)c12`: the Potency is inactive: > 76.9 µM.
As for `O=C(CN1CCOCC1)NCc1ccccc1`, the figure is inactive: > 76.9 µM; as for `COc1ccccc1C(=O)NC(C)C(c1cccs1)N1CCOCC1` (stereo not given), inactive: > 76.9 µM.
Regarding `CN1CCN(c2nc3nonc3nc2N2CCN(C)CC2)CC1`, the Potency is inactive: > 76.9 µM.
As for `Cc1cc(C)nc(N(C#N)CC(=O)Nc2ccccc2)n1`, the figure is inactive: > 76.9 µM.
The figure for `CC1CCc2c(nc3ncnn3c2N2CC(C)OC(C)C2)C1` (stereo not given) is inactive: > 76.9 µM; for `CC(O)CNc1nc2c(c(=O)n(C)c(=O)n2C)n1C/C=C/c1ccccc1` (stereo not given) it is inactive: > 76.9 µM; for `CCOC(=O)C1C(=O)NC(N2CCCCC2)=NC1c1ccccc1` (stereo not given) it is inactive: > 76.9 µM.
The figure for `COc1ccc(C)cc1N(CC(=O)NC1CCCC1)C(=O)CCC(=O)Nc1cc(C)on1` is inactive: > 76.9 µM; for `Cc1ccc(C(=O)OCC(=O)Nc2ccccc2)cc1NC(=O)c1ccco1` it is inactive: > 76.9 µM.
Regarding `Cc1cc(C(=O)Nc2ccc(S(=O)(=O)N3CCCC3)cc2)cs1`, the Potency is inactive: > 76.9 µM.
As for `Cn1c2ccccc2c2ncn(Cc3ccco3)c(=O)c21`, the figure is inactive: > 76.9 µM; as for `Cc1ccc(S(=O)(=O)N(c2ccccc2)C2CCS(=O)(=O)C2)cc1` (stereo not given), inactive: > 76.9 µM; as for `COc1ccccc1C1C2=C(N=C3SCC(=O)N31)c1ccccc1CC2` (stereo not given), inactive: > 76.9 µM.
As for `COc1ccc(-n2c(Cc3cccn3C)nnc2SCC(=O)Nc2cccc(NC(C)=O)c2)cc1`, the figure is inactive: > 76.9 µM; as for `O=C(NCc1ccccc1)NC(=O)c1ccncc1`, inactive: > 76.9 µM; as for `CC(=O)Nc1ccc(S(=O)(=O)N2CCSC2C(=O)O)cc1` (stereo not given), inactive: > 76.9 µM.
Consider `O=C(Oc1ccccc1C(=O)N1CCOCC1)c1cccc(Br)c1`, for which the Potency is inactive: > 76.9 µM.
As for `COc1cccc(C2/C(=C(/O)c3ccncc3)C(=O)C(=O)N2CCCN2CCOCC2)c1OC` (stereo not given), the figure is inactive: > 76.9 µM; as for `Cc1ccc(C2C(C(=O)c3sc(C)nc3C)=C(O)C(=O)N2CCN2CCOCC2)o1` (stereo not given), inactive: > 76.9 µM.
